In PMC4336329 (PLoS ONE, 2015):
Out of some 310,000 compounds screened, about 14,000 (4.5%) showed an effect of 50% or more. The effect is printed as a negative number. The list shows a part of the results.

Target: human ether-à-go-go-related gene (hERG) potassium channel (human, UniProt Q12809)
Experiment: primary screen, population patch clamp on CHO cells stably expressing hERG
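Note: peak tail current of the secondary pulse compared with the same well before compound.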

Sequence of human ether-à-go-go-related gene (hERG) potassium channel (Q12809 whole entry, looked up): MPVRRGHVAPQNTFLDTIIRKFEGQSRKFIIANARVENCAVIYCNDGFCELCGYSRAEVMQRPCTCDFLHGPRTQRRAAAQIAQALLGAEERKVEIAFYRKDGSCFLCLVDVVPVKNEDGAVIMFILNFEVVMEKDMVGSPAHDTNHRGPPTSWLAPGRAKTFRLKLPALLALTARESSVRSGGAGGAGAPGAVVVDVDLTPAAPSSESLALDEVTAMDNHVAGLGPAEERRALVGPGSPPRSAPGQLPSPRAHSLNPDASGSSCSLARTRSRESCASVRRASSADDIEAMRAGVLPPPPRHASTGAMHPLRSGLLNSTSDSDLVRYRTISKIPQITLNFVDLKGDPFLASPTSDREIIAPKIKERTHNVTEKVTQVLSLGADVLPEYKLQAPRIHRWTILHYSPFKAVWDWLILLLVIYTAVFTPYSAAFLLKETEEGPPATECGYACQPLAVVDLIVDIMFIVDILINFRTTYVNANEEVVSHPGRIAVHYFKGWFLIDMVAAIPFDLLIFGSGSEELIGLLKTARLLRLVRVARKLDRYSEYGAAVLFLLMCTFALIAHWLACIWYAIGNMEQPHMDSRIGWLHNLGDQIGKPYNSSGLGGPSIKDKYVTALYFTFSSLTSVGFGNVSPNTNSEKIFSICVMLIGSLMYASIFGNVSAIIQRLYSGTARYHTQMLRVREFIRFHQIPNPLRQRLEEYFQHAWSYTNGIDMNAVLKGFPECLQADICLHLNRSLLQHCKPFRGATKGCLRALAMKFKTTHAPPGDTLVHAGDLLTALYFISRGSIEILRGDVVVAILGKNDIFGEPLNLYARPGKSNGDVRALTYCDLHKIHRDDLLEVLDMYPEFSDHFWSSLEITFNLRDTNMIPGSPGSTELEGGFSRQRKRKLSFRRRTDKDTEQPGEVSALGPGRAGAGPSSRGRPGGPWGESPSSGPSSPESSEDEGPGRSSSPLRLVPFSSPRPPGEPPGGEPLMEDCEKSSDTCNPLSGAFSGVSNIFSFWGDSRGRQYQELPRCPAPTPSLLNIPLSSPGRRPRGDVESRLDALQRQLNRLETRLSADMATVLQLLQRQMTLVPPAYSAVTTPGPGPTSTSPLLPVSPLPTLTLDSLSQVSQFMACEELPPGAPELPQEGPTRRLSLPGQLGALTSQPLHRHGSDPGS

Row | Structure (SMILES) | hERG current change (%, negative = inhibition) at 10uM [%]
1 | COc1ccccc1CNC(=O)C1CC2Cn3c(nc4cc5ccccc5cc43)C2N1C (stereo not drawn) | -43.8
2 | Cn1c(N)c(C(=O)CSc2nc(N)cc(N)n2)c(=O)n(C)c1=O | 41.4
3 | c1ccc(Nc2ccc3c4c(cccc24)CC3)cc1 | 12.8
4 | COc1cccc(NC(=O)c2cc3c(=O)n4ccccc4nc3n(CC(C)C)c2=N)c1 | -82
5 | Cc1onc(-c2ccccc2)c1C(=O)OCC(=O)NC(C)c1ccc(Cl)cc1 (stereo not drawn) | -7.03
6 | O=C(NCCCN1CCOCC1)c1ccc(CSCc2cccc(Cl)c2)o1 | -64.4
7 | COc1cccc(C(=O)Nc2cccc(-c3ccc4nncn4n3)c2)c1OC | -7.32
8 | Cc1ccc(C(C)(C)C)cc1S(=O)(=O)Nc1cccc(S(=O)(=O)NC2=NCCC2)c1 | 13.1
9 | CNC(=O)COc1coc(CN2CCN(C(=O)c3ccco3)CC2)cc1=O | 7.13
10 | COc1ccc(NC(=O)CSc2nc3c([nH]c4ccccc43)c(=O)n2C)c(OC)c1 | 19
11 | Cc1ccc(CCNC(=O)c2ccc3nc4ccc(Cl)cc4c(=O)n3c2)cc1 | 20.4
12 | O=C(/C=C\Nc1ccc(Br)cc1)c1cccnc1 | -6.19
13 | O=C(NCC(c1ccccc1Cl)N1CCCC1)C1CCN(C(=O)Nc2ccccc2)CC1 (stereo not drawn) | -1.67
14 | CC(C)c1ccc(OCCCN2CCCC2)cc1 | -67.1
15 | CNc1nnc(SCC(=O)N2c3ccccc3NC(=O)CC2C)s1 (stereo not drawn) | 7.99
16 | CCOc1ccc(S(=O)(=O)NCCC(=O)NCC(c2ccc(OC)cc2)N2CCCCC2)cc1 (stereo not drawn) | -46.9
17 | CCOC(=O)N1CCC(NC(=O)c2cc(S(=O)(=O)N3CCc4ccccc43)cn2C)CC1 | -12.1
18 | CN(C)CCNC(=O)c1ccccc1-c1ccccc1 | -1.88
19 | CCCCC(=O)Nc1ccc(C(=O)Nc2ccc3c(c2)OCO3)cc1 | 2.35
20 | CCCCN(C(=O)NC(=O)Nc1c(C)cc(C)cc1C)S(C)(=O)=O | -4.82
21 | CCOC(=O)CN1C(=O)S/C(=C/c2ccc(N3CCCCC3)o2)C1=O | 13.1
22 | CC(C)c1nc(N2CCOCC2)c(C#N)c2c1CCC2 | 7.25

Row | Structure (SMILES) | hERG current change (%, negative = inhibition) at 10uM [%]
23 | Cc1cccc(C)c1NS(=O)(=O)c1c(C(=O)N2CCCCC2)c(C)n(C)c1C | 9.24
24 | COc1ccccc1OCc1nnc(SCC(N)=O)n1-c1ccccc1 | 11.3
25 | Cc1ccc(C(=O)C(C)OC(=O)c2ccccc2[N+](=O)[O-])cc1 (stereo not drawn) | 9.81
26 | O=C(Nc1ncccn1)c1ccc([N+](=O)[O-])cc1 | 26.6
27 | Cc1ccc(NC(=S)N(C)C(c2ccccc2)c2ccccc2)cc1C | 19.2
28 | Cc1cccc(CN(CC(=O)N/N=C/c2cccs2)S(=O)(=O)c2ccc(Cl)cc2)c1 | 11.9
29 | CC1(OC(=O)c2cnc3ccccc3n2)C(=O)C=C2C=C(c3ccc(C#N)cc3)OC=C2C1=O (stereo not drawn) | 4.63
30 | O=C(N/N=C/c1ccc(O)cc1)c1cccc(N/N=C/c2ccc(O)cc2)c1 | 7.63
31 | CC12COC3(C(=O)Nc4ccc(Cl)cn4)CC1CCC32C (stereo not drawn) | 3.6
32 | CCOc1nc2cnccc2n(CC(=O)Nc2c(C)cccc2CC)c1=O | 8.7
33 | CN(CC(O)COCc1ccccc1F)C1CCCCC1 (stereo not drawn) | -14.6
34 | O=C1CC(C(F)(F)C(F)(F)C(F)(F)F)=Nc2ccccc2N1 | -15.1
35 | O=C(O)c1ccc(NNC(=S)Nc2cc(C(F)(F)F)ccc2Cl)cc1 | 19.4
36 | O=C1c2cccnc2C(O)N1Cc1ccccc1 (stereo not drawn) | 1.78
37 | O=C(CCNS(=O)(=O)c1ccc(Cl)cc1)N1CCOCC1 | 22.4
38 | CCc1c(C)c2cc(Cl)c(O)c(CN(C)C)c2oc1=O | 10.8
39 | COc1ccc([N+](=O)[O-])cc1N(CC(O)CN1CCCCC1)S(=O)(=O)c1ccccc1 (stereo not drawn) | -11.2
40 | Cc1ccc(OCCN2C(=O)C(=O)c3cc(C)ccc32)cc1 | -7.56
41 | COc1ccc(/C=N/Nc2ccc([N+](=O)[O-])cc2)cc1Cn1cc([N+](=O)[O-])cn1 | 17.7
42 | O=C(OCC#CCSc1nnc(-c2ccccc2)o1)c1cc2ccccc2o1 | 4.07
43 | O=C1c2ccccc2NC(c2ccccn2)N1NS(=O)(=O)c1ccccc1 (stereo not drawn) | 3.72
44 | CC(=O)O/N=C(\N)c1cnn2c(C(F)(F)F)cc(C(F)(F)F)nc12 | 14.9

Row | Structure (SMILES) | hERG current change (%, negative = inhibition) at 10uM [%]
45 | CC(CN1CCCC1)OC(=O)c1ccc(F)cc1.Cl (stereo not drawn) | -10.1
46 | CCCOc1ccc(Cc2nn3c(=O)/c(=C/c4ccco4)sc3nc2=O)cc1 | 22.8
47 | CCOC(=O)N1CCN(C(=O)C(CC(C)C)NS(=O)(=O)c2ccc(C)cc2)CC1 (stereo not drawn) | -4.14
48 | COc1ccccc1-n1c(SCC(=O)Nc2ccc(Br)cc2)nc(O)cc1=O | 16.4
49 | C/C(=N\NC(N)=O)c1ccc(-n2ccnc2)cc1 | 10.9
50 | Cc1cccnc1NC(=S)NCCc1ccccc1 | -4.2
51 | CCOC(=O)c1ccc(Nc2cc(C)nc(N3CCOCC3)n2)cc1 | -2.79
52 | COc1cccc(NC(=S)N(Cc2ccc(C)cc2)Cc2ccccn2)c1 | -30.2
53 | C=C(C)COc1ccc(-c2[nH]ncc2-c2ccc(Br)cc2)c(O)c1 | 8.06
54 | O=C(CN1CCN(S(=O)(=O)c2ccc(F)cc2)CC1)c1ccc(O)c(O)c1 | -34.9
55 | COc1ccc(NC(=O)CCCC(=O)OCC(F)(F)C(F)F)cc1 | -30.7
56 | COc1ccc2nc(NC(=O)CN3C(=O)NC4(CCCC4)C3=O)sc2c1 | 2.25
57 | CCOc1ccccc1NC(=O)c1cc(-c2ccccn2)nc2ccccc12 | -23
58 | CCN(C(=O)COC(=O)c1ccc2[nH]c3c(c2c1)CCCC3)C1CCS(=O)(=O)C1 (stereo not drawn) | -8.35
59 | O=C(O)/C=C/C(=O)N1CCN(S(=O)(=O)c2cc(C(F)(F)F)ccc2Cl)CC1 | 2.71
60 | COc1ccc([N+](=O)[O-])cc1NC(=O)COC(=O)Cc1cc(OC)c(OC)c(OC)c1 | -17.8
61 | Cn1c(=O)[nH]c(=O)c2c1nc(NCc1ccccc1)n2Cc1ccc(F)cc1 | 10.2
62 | CC(=O)c1cccc(OCC(O)CN2CCN(S(=O)(=O)c3c(F)cccc3F)CC2)c1.O=C(O)C(=O)O (stereo not drawn) | -31
63 | Cc1cc(C)n(Cc2ccc(C(=O)Nc3cccc(Br)c3)o2)n1 | -7.78
64 | COc1ccc(/C=C2\SC(=S)N(CC3CCCO3)C2=O)cc1 (stereo not drawn) | 14.2
65 | CCOc1cc(C=O)ccc1OCCn1c([N+](=O)[O-])cnc1C | 3.96
66 | CCOC(=O)c1cn(CC(=O)Nc2ccc(CC)cc2)nn1 | 7.76

Row | Structure (SMILES) | hERG current change (%, negative = inhibition) at 10uM [%]
67 | O=C(CCC1CCCC1)Nc1ccon1 | 12.2
68 | O=C(c1cc(C2CC2)on1)N1CCN(C(c2ccccc2)c2ccccc2)CC1 | 16.5
69 | O=C1C(Oc2ccccc2)C(c2ccc3c(c2)OCO3)N1CCc1ccc(F)cc1 (stereo not drawn) | 13.5
70 | CCOc1ccccc1N1CCN(C(=O)/C=C/c2cccc([N+](=O)[O-])c2)CC1 | -38.9
71 | COc1ccc(OC)c(C2=NNC(=NCc3ccc4c(c3)OCO4)SC2)c1 | -15
72 | CCOc1ccc(NCc2nnc(SCC(=O)Nc3cc(C)on3)n2-c2ccccc2OC)cc1 | 1.71
73 | CCOC(=O)c1ccccc1NC(=O)COC(=O)C1=COCCO1 | 4.78
74 | CN1CCN(C(=O)/C(=C\c2cccc([N+](=O)[O-])c2)NC(=O)c2cccs2)CC1 | -25.4
75 | Cc1ccc(-n2nc(CN3CCOCC3)c(-c3ccccc3)c2N)c(C)c1 | -9.78
76 | Cn1c(SCC(=O)C(C)(C)C)nnc1-c1ccncc1 | -3.14
77 | COc1ccc(N2CCN(C(=O)NCc3ccc(OC)c(OC)c3)CC2)cc1 | 19.2
78 | COc1ccc(N2C(=O)CC(NCc3ccncc3)C2=O)cc1 (stereo not drawn) | 16.7
79 | COc1ccc(N(CC(=O)Nc2cc(C)ccc2C)S(=O)(=O)c2c(C)[nH]c(=O)[nH]c2=O)cc1 | 16.2
80 | Cc1ccc(C(=O)NC2CCCN(c3ccc(C(F)(F)F)cn3)C2)cn1 (stereo not drawn) | -2.75
81 | Fc1ccc(/C=N/NC2=Nc3cccc4cccc2c34)cc1 | 36.8
82 | Cc1csc(SCC(=O)Nc2ccccc2)n1 | 30.5
83 | CCCCCCc1ccc(OCC(=O)OC)cc1OCC(=O)OC | 14.1
84 | CCn1c(SCC(=O)O)nc2sc3c(c2c1=O)CCC3 | -3.55
85 | Cc1cc(C)cc(NC(=O)COc2coc(CN3CCc4ccccc4C3)cc2=O)c1 | 1.13
86 | CCOc1ccc(/C=C2/Sc3ccc(C(=O)N4CCOCC4)cc3N(C)C2=O)cc1OC | -18.5
87 | COc1ccc(S(=O)(=O)N2CCCCCC2)cc1C(=O)N(C)Cc1cccc(OC)c1OC | -13.8
